# In PubChem BioAssay AID588855 (National Center for Advancing Translational Sciences (NCATS), 2011):
# The campaign covered roughly 410,000 compounds. About 5,000 (1.2%) were called active. This list was built around the results that the source calls inconclusive (neither active nor inactive); the mix of calls is not that of the screen. Calls follow the shape of the dose curve; as a rule, active = well fitted inhibition curve with a large enough effect; inconclusive = small, poorly fitted or top-dose-only effect; inactive = no such curve, though single readings can be large or run the other way. Where the call is inconclusive, the potency comes from a doubtful curve fit.
# Test: qHTS for Inhibitors of TGF-b; also: nearly all actives have a fitted effect of over 65% in size
# Conditions: HepG2 CAGA-GFP TGF-b/SMAD3 reporter, GFP fluorescence, 18 h, TGF-beta stimulated, 500 pg/mL final; series mostly up to 46.1 µM
# Summary of the method: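 HEPG2 CAGA-GFP, 1000 cells/well; 2 h settle, 37 C; cpd via pin tool; TGF-b 500 pg/mL final; 18 h, 37 C; GFP imaging ex488/em500-530; %Activity normalised to -TGF-b and +DMSO controls; CRC fit, curve class.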
# Potency is read from the fitted curve at half-maximal effect; tags tell the direction and shape of the fitted curve.
row,Compound,Potency
1,Cc1cccc(C(=O)OCc2cc(=O)n3nc(C4CCCCC4)sc3n2)c1,"inconclusive: 6.31 µM [inhibitor, single point]"
2,O=C(Nc1nnc(-c2cccnc2)o1)c1cccc(Cl)c1,"inconclusive: 6.31 µM [inhibitor, single point]"
3,O=C1CCCN1CN(C(=O)c1ccccc1)c1ccc(F)cc1,"inconclusive: 6.31 µM [inhibitor, single point]"
4,O=[N+]([O-])c1nn(-c2ccc(Cl)cc2)n(O)c1=NCc1ccncc1,"inconclusive: 17.8 µM [inhibitor, partial curve, poor fit]"
5,COc1ccc(CCNC(=O)CCc2c(C)c3cc4c(C)c(C)oc4cc3oc2=O)cc1,inactive
6,CCOc1ccc(CCNC(=O)Cn2ncn3c(cc4ccccc43)c2=O)cc1OCC,inactive
7,CCOC(=O)c1c(NC(=O)/C=C/C(=O)O)sc(C)c1-c1ccc(C)c(C)c1,"inconclusive: 35.5 µM [inhibitor, single point]"
8,CCOc1cc(CN2CCN(c3ccc(C(C)=O)cc3)CC2)ccc1OC,"inconclusive: 12.6 µM [inhibitor, partial curve, poor fit]"
9,COc1cc(NC(=O)c2cnc3c(-c4ccc(F)cc4)c(C)nn3c2C)cc(OC)c1,"inconclusive: 15.8 µM [inhibitor, single point]"
10,CCC(C)(C)NC(=O)C(c1cccc(OC)c1OC)N(Cc1ccccc1)C(=O)CCC(=O)Nc1cc(C)on1 (configuration not stated),"inconclusive: 7.08 µM [inhibitor, partial curve]"
11,Clc1cccc(-c2nc(NCc3cccnc3)c3ccccc3n2)c1,"inconclusive: 35.5 µM [inhibitor, single point]"
12,O=C(c1c[nH]c(C(=O)C(Cl)(Cl)Cl)c1)c1ccccc1Cl,inactive
13,C[C@H](CO)N1C[C@H](C)[C@@H](CN(C)Cc2ccc(Cl)c(Cl)c2)Oc2c(NC(=O)C3CC3)cccc2C1=O,"inconclusive: 35.5 µM [inhibitor, single point]"
14,COc1cc(CNc2ccc3[nH]c(=O)[nH]c3c2)ccc1OCc1ccc(F)cc1,inactive
15,CCOC(=O)C(NS(=O)(=O)c1ccccc1)(C(F)(F)F)P(=O)(OCC(C)C)OCC(C)C (configuration not stated),"inconclusive: 35.5 µM [inhibitor, single point]"
16,Cc1ccc2nc(N3C(=O)C(O)=C(C(=O)c4ccc(C)o4)C3c3ccco3)sc2c1 (configuration not stated),inactive
17,Cc1ccc2nc(-c3ccco3)c(Cc3ccccc3)n2c1,"inconclusive: 11.2 µM [inhibitor, partial curve]"
18,CC(C)Cn1c(N)c(C(=O)COC(=O)c2c(O)c(Cl)cc(Cl)c2Cl)c(=O)n(C)c1=O,inactive
19,CN(c1ccccc1)S(=O)(=O)c1cccc(C(=O)NCCc2c[nH]c3ccccc23)c1,"inconclusive: 35.5 µM [inhibitor, single point]"
20,Cc1ccc(S(=O)(=O)CCC(=O)Nc2nnc(CC(C)C)s2)cc1,"inconclusive: 31.6 µM [inhibitor, single point]"
21,Cc1cc(=O)[nH]c(N/N=C/c2ccccc2C(F)(F)F)n1,inactive

row,Compound,Potency
1,O=C(Nc1nnc(S(=O)(=O)N2CCc3ccccc32)s1)c1ccccc1,"inconclusive: 35.5 µM [inhibitor, single point]"
2,COc1ccccc1CNc1nc(Oc2cccc(F)c2)c2sccc2n1,inactive
3,CCOC(=O)c1c(NC(=O)COc2cccc(C(F)(F)F)c2)sc2c1CCCCC2,inactive
4,COc1cccc(C2c3c(-c4ccccc4O)n[nH]c3C(=O)N2CCc2ccc(OC)c(OC)c2)c1 (configuration not stated),"inconclusive: 35.5 µM [inhibitor, single point]"
5,O=C(CSc1ncc(CO)n1Cc1ccccc1)Nc1ccc(C(F)(F)F)cc1,"inconclusive: 14.1 µM [inhibitor, single point]"
6,CC(C)COc1ccc(C(=O)N2CCN(CCc3ccccn3)CC2)cc1,inactive
7,CCN(CC)CCOC(=O)c1ccc(N/C=C(/C#N)c2nc(-c3ccc4c(c3)OCO4)cs2)cc1,inactive
8,CC1Cn2c(CCc3ccccc3)nnc2S1 (configuration not stated),"inconclusive: 35.5 µM [inhibitor, partial curve, poor fit]"
9,Cc1cc(C)c(C)c(S(=O)(=O)N2CCN(CC(=O)Nc3sccc3C#N)CC2)c1C,"inconclusive: 14.1 µM [inhibitor, partial curve, poor fit]"
10,COc1cc2[nH]c(=O)n(CCCCCC(=O)NCCc3ccccc3)c(=O)c2cc1OC,"inconclusive: 8.91 µM [inhibitor, partial curve, poor fit]"
11,COc1ccc(OCc2cccc(C(=O)Nc3ccc(CN4CCCCC4)cc3)c2)cc1,"inconclusive: 25.1 µM [inhibitor, single point]"
12,CCCN1C(=O)c2cc(C(=O)Nc3ccccc3OC)ccc2C1Nc1ccccc1OC (configuration not stated),inactive
13,OC[C@@H]1CN(Cc2ccccc2)C[C@H](n2cnc3c(Nc4ccccc4)ncnc32)O1,inactive
14,Fc1ccccc1NC(=S)NNc1ncc(C(F)(F)F)cc1Cl,"inconclusive: 12.6 µM [inhibitor, single point]"
15,COc1ccc(S(=O)(=O)N2CC(O)CC2C(=O)Nc2cccnc2)cc1 (configuration not stated),inactive
16,CN(Cc1c(F)cccc1Cl)C(=O)c1cnc2ccccc2n1,inactive
17,CCOC(=O)N1CCN(C(=O)c2ccc(N(Cc3ccc(Cl)cc3)S(C)(=O)=O)cc2)CC1,"inconclusive: 8.91 µM [inhibitor, partial curve]"
18,CNC(=O)N(O)C1N(NC(=O)Nc2cccc3ccccc23)C(=S)SC1(C)C (configuration not stated),"inconclusive: 6.31 µM [inhibitor, single point]"
19,CCOC(=O)c1sc(Nc2ccc(Br)cc2)nc1C,"inconclusive: 25.1 µM [inhibitor, single point]"
20,CN(C)C(=O)COc1ccc(C(=O)/C=C/c2cccnc2)cc1,"inconclusive: 11.2 µM [inhibitor, partial curve, poor fit]"
21,FC(F)(F)c1cccc(Cn2nnnc2-c2cc(Cl)cc(Cl)c2)c1,"inconclusive: 11.2 µM [inhibitor, partial curve, poor fit]"
